Measurements from the supplement of paper PMC9446081.
The whole screen tested about 39,000 compounds, of which about 220 (0.56%) showed activity. Some of the results follow.

Test system: Escherichia coli K-12 BW25113
Assay: relative growth (OD600 normalised to plate interquartile mean) (fraction); higher = less growth inhibition, active = 0.2 or less
Conditions: 50 µM; LB; incubation time: overnight (16-24 h)
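Further: static incubation at 37 °C against the wild-type strain, values averaged over two biological replicates.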

SMILES | relative growth
C[C@@H]1CCCCO[C@@H](CN(C)C(=O)CCC(F)(F)F)[C@@H](C)CN([C@H](C)CO)C(=O)c2cc(NC(=O)Nc3ccc4c(c3)OCO4)ccc2O1 | inactive: 0.99
C[C@@H]1CN([C@@H](C)CO)C(=O)c2c(c3ccccc3n2C)-c2ccccc2CO[C@H]1CN(C)C(=O)CCC(F)(F)F | inactive: 0.975
C[C@@H]1CN([C@@H](C)CO)S(=O)(=O)c2ccc(-c3cncnc3)cc2O[C@@H]1CN(C)C(=O)c1cccc(F)c1 | inactive: 0.966
C[C@H](CO)N1C[C@H](C)[C@@H](CN(C)Cc2ccccc2)Oc2c(NC(=O)Nc3ccc(C(F)(F)F)cc3)cccc2C1=O | inactive: 0.77
CC(=O)N1CCn2nncc2C[C@@]1(C)C1CC1 | inactive: 0.965
COc1ccc(NC(=O)N(C)C[C@@H]2OCCCC[C@@H](C)Oc3ccc(NC(=O)C4CCCCC4)cc3C(=O)N([C@H](C)CO)C[C@@H]2C)cc1 | inactive: 1.03
CCOc1ccn(-c2ccc(F)cc2)c(=O)c1C(=O)Nc1ccc(Oc2ccnc(N)c2Cl)c(F)c1 | inactive: 1.01
C[C@@H]1CN([C@@H](C)CO)S(=O)(=O)c2ccc(-c3ccncc3)cc2O[C@H]1CN(C)Cc1ccc(Oc2ccccc2)cc1 | inactive: 0.995
CN1C(=O)c2cc(NC(=O)c3cscn3)ccc2OC[C@H]2O[C@@H](CC(=O)N3CCOCC3)CC[C@H]21 | inactive: 0.996
O=C(C[C@@H]1CC[C@@H](NS(=O)(=O)c2ccccc2F)[C@@H](CO)O1)NCCCN1CCOCC1 | inactive: 1.05
C[C@H](CO)N1C[C@H](C)[C@@H](CN(C)C(=O)Nc2ccc(F)cc2)Oc2ccc(NC(=O)C3CC3)cc2CC1=O | inactive: 0.979
COc1ccc(CN(C)C[C@H]2OCCCC[C@@H](C)Oc3ccc(NS(=O)(=O)c4ccc(OC)cc4)cc3C(=O)N([C@H](C)CO)C[C@@H]2C)cc1 | inactive: 0.984
C#CCCCCCCCCCCC[C@H](O)C[C@H](O)CO.C=CCCCCCCCCCCC[C@H](O)C[C@H](O)CO | inactive: 0.97
O=C(CN1CCCN(CC(=O)CN2C(=O)c3ccccc3C2=O)CC1)CN1C(=O)c2ccccc2C1=O | inactive: 0.995
CC(C)CC#Cc1ccc2c(c1)O[C@H](CN(C)C(=O)c1cccnc1)[C@@H](C)CN([C@@H](C)CO)S2(=O)=O | inactive: 1
COc1ccccc1S(=O)(=O)N(C)C[C@H]1Oc2cc(Br)ccc2S(=O)(=O)N([C@@H](C)CO)C[C@H]1C | inactive: 1.01
C[C@@H]1CN([C@H](C)CO)C(=O)c2cc(NC(=O)C3CCCCC3)ccc2O[C@@H](C)CCCCO[C@H]1CN(C)C(=O)NC1CCCCC1 | inactive: 1.03
C[C@@H]1CN([C@H](C)CO)C(=O)c2cc(NC(=O)Nc3ccc(C(F)(F)F)cc3)ccc2O[C@@H](C)CCCCO[C@@H]1CN(C)S(=O)(=O)c1ccccc1 | inactive: 0.996
C[C@H](CO)N1C[C@H](C)[C@H](CN(C)C(=O)Nc2ccccc2)Oc2ccc(NC(=O)Nc3ccc(C(F)(F)F)cc3)cc2CC1=O | inactive: 1.01

SMILES | relative growth
C[C@@H]1CCCCO[C@H](CN(C)Cc2ccc(Cl)c(Cl)c2)[C@@H](C)CN([C@H](C)CO)C(=O)c2cc(NC(=O)C3CCCCC3)ccc2O1 | inactive: 1.03
COCC(=O)N1C[C@@H](C)[C@H](OC)CN(C)C(=O)c2cc(NC(=O)c3cc(C)on3)ccc2OC[C@H]1C | inactive: 0.969
C[C@@H]1CN([C@@H](C)CO)C(=O)c2cc(C#CCc3ccccc3)cnc2O[C@@H]1CN(C)CC1CCOCC1 | inactive: 0.989
C[C@H]1CN([C@@H](C)CO)C(=O)c2cc(NC(=O)Nc3cccc4ccccc34)ccc2O[C@H]1CN(C)S(=O)(=O)c1ccc(Cl)cc1 | inactive: 1.04
COc1ccc(NC(=O)N(C)C[C@H]2Oc3ncc(C#CCN(C)C)cc3C(=O)N([C@@H](C)CO)C[C@H]2C)cc1 | inactive: 0.928
C[C@H]1CN([C@@H](C)CO)C(=O)Cc2cc(NC(=O)Nc3ccc(C(F)(F)F)cc3)ccc2O[C@@H]1CN(C)CC1CCCCC1 | inactive: 0.987
O=C(C[C@H]1C=C[C@@H](NS(=O)(=O)c2ccccc2F)[C@@H](CO)O1)NCCCN1CCOCC1 | inactive: 0.985
CC(C)CC#Cc1ccc2c(c1)O[C@H](CN(C)Cc1cncnc1)[C@H](C)CN([C@H](C)CO)S2(=O)=O | inactive: 0.979
C[C@H]1CN([C@@H](C)CO)C(=O)c2cc(Br)cnc2O[C@H]1CN(C)C(=O)c1ccc2c(c1)OCO2 | inactive: 1.01
C[C@H](CO)N1C[C@H](C)[C@@H](CN(C)C(=O)CCN2CCCCC2)Oc2ncc(C#Cc3ccccc3)cc2C1=O | inactive: 1.01
C[C@@H]1CCCCO[C@H](CN(C)Cc2ccc(Cl)c(Cl)c2)[C@H](C)CN([C@@H](C)CO)C(=O)c2cc(NC(=O)c3ccccc3)ccc2O1 | inactive: 1.03
CCN1CCN(C2=C(NS(=O)(=O)c3ccc(Br)s3)C(=O)c3ccccc3C2=O)CC1 | inactive: 0.929
C[C@@H]1CN([C@H](C)CO)C(=O)c2cc(NC(=O)C3CCCCC3)ccc2O[C@H]1CN(C)Cc1ccc(C(F)(F)F)cc1 | inactive: 1.03
Cc1noc(C)c1NC(=O)N[C@H]1CC[C@@H](CC(=O)NCCCN(C)C)O[C@H]1CO | inactive: 1.04
C[C@@H]1CN([C@H](C)CO)C(=O)c2cc(NC(=O)c3ccccc3)ccc2O[C@@H](C)CCCCO[C@@H]1CN(C)S(=O)(=O)c1ccc(Cl)cc1 | inactive: 0.95
C[C@H](CO)N1C[C@H](C)[C@H](CN(C)CC2CC2)OCCCC[C@H](C)Oc2ccc(NC(=O)Cc3ccccc3)cc2C1=O | inactive: 1.04
C[C@@H]1CN([C@H](C)CO)S(=O)(=O)c2ccc(-c3ccc(C(=O)N(C)C)cc3)cc2O[C@H]1CN(C)C(=O)C1CCOCC1 | inactive: 0.986
C[C@@H]1CCCCO[C@H](CN(C)CC2CCCCC2)[C@@H](C)CN([C@@H](C)CO)C(=O)c2cc(NS(=O)(=O)c3cccs3)ccc2O1 | inactive: 0.974
C[C@H](CO)N1C[C@H](C)[C@H](CN(C)C(=O)Nc2ccc(F)cc2)OCCCC[C@H](C)Oc2ccc(NC(=O)C3CCCCC3)cc2C1=O | inactive: 1.02

SMILES | relative growth
Cn1ncc(Br)c1C(=O)O | inactive: 1.02
C[C@@H]1CN([C@H](C)CO)C(=O)Cc2cc(NC(=O)c3ccncc3)ccc2O[C@H]1CN(C)Cc1ccncc1 | inactive: 1
O=C(CCN1CCNCC1)N1CCCCC1 | inactive: 1.03
Cc1noc(C)c1NC(=O)N(C)C[C@H]1OCCCC[C@@H](C)Oc2ccc(NC(=O)C3CCCCC3)cc2C(=O)N([C@@H](C)CO)C[C@H]1C | inactive: 0.976
COc1ccc(S(=O)(=O)N(C)C[C@H]2Oc3c(cccc3N(C)C)C(=O)N([C@H](C)CO)C[C@@H]2C)cc1 | inactive: 0.997
C[C@@H]1CN([C@H](C)CO)C(=O)c2cccc(NC(=O)C3CCCCC3)c2O[C@@H]1CN(C)Cc1ccc(Cl)c(Cl)c1 | inactive: 1.01
Cc1noc(C)c1S(=O)(=O)Nc1ccc2c(c1)CC(=O)N([C@@H](C)CO)C[C@@H](C)[C@H](CN(C)S(=O)(=O)c1c(C)noc1C)O2 | inactive: 1.03
C[C@@H]1CN([C@@H](C)CO)C(=O)c2cccc(NC(=O)c3nc4ccccc4s3)c2O[C@@H]1CN(C)Cc1ccc(-c2ccccc2)cc1 | inactive: 0.994
CC(=O)N[C@H]1[C@H](O[C@H]2CC[C@]3(C)[C@H]4CC=C5[C@@H]6CC(C)(C)CC[C@]6(C(=O)O[C@H]6OC[C@@H](O)[C@@H](O)[C@@H]6O)[C@@H](O)C[C@@]5(C)[C@]4(C)CC[C@H]3C2(C)C)O[C@H](CO[C@H]2OC[C@@H](O)[C@@H](O[C@H]3OC[C@@H](O)[C@@H](O)[C@@H]3O)[C@@H]2O)[C@@H](O[C@@H]2O[C@@H](C)[C@H](O)[C@@H](O)[C@H]2O[C@@H]2O[C@@H](C)[C@H](O)[C@@H](O)[C@H]2O)[C@@H]1O | inactive: 0.985
C[C@@H]1CN([C@H](C)CO)C(=O)Cc2cc(NS(=O)(=O)c3ccc(Cl)cc3)ccc2O[C@@H]1CN(C)Cc1ccc(-c2ccccc2)cc1 | inactive: 1.01
C[C@H](CO)N1C[C@H](C)[C@@H](CN(C)S(=O)(=O)c2cn(C)cn2)Oc2ccc(NC(=O)NC3CCCCC3)cc2CC1=O | inactive: 0.996
COc1ccc(NC(=O)N(C)C[C@@H]2OCc3ccccc3-c3c(n(C)c4ccccc34)C(=O)N([C@H](C)CO)C[C@H]2C)c(OC)c1 | inactive: 1.01
Cc1ccc(S(=O)(=O)Nc2ccc3c(c2)C(=O)N([C@H](C)CO)C[C@H](C)[C@@H](CN(C)C(=O)Nc2ccc(F)cc2)OCCCC[C@H](C)O3)cc1 | inactive: 1.03
CCC(=O)Nc1ccc2c(c1)OC[C@@H](C)N(C(=O)CN1CCOCC1)C[C@H](C)[C@H](OC)CN(C)C2=O | inactive: 0.992
NNC(=O)CCCCCCC(=O)NO | inactive: 1.02
C[C@@H]1CN([C@H](C)CO)C(=O)c2cc(NC(=O)Cc3ccccc3)ccc2O[C@@H](C)CCCCO[C@@H]1CN(C)C(=O)Nc1cccc2ccccc12 | inactive: 0.996
C[C@@H]1CN([C@@H](C)CO)C(=O)Cc2cc(NC(=O)Cn3cnnn3)ccc2O[C@H]1CN(C)Cc1ccc(Cl)c(Cl)c1 | inactive: 1
Nc1[nH]ncc1Cl | inactive: 1.04
CC(C)N1C[C@H](C)[C@@H](CN(C)Cc2ccc(Oc3ccccc3)cc2)Oc2c(NC(=O)c3ccccc3)cccc2C1=O | inactive: 1.03
